Assay results published in the supplement of paper PMC4466236.
The full ranking holds about 33,000 sequences; the median of “E-score (dimensionless, -0.5 to 0.5)” is about -0.058, and the highest 2% start at about 0.35. The list shows a part of the results.

test system: MvaT; assay: PBM 8-mer E-score (mean of HK and ME arrays) (E-score (dimensionless, -0.5 to 0.5)); higher = stronger relative binding preference; most listed sequences are background and not binding sites
How it was run: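 Reported values are rank-based E-scores, taken as the mean of two universal arrays and parsed with a custom script. Each 8-mer score falls between -0.5 and 0.5. The arrays, ME and HK, were double-stranded 60-mers with a constant 25-mer primer region and a variable 35-mer region covering all 8-mers. They were probed, by an earlier protocol, with full-length P. aeruginosa MvaT carrying an N-terminal glutathione S-transferase fusion.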

Compared with CTCATCAG, AAGATAAA is higher in “PBM 8-mer E-score” value: -0.131 for the first, 0.313 for the second.

First: AGTGTCAT
Second: CCTCTATC
The “PBM 8-mer E-score” value of the first is higher: -0.0474 for the first, -0.175 for the second.

Compared with AAGCGGTA, ACGCGAGG is lower in “PBM 8-mer E-score” value: -0.0336 for the first, -0.266 for the second.

Going from ACTTGGAG to AGTCGACT, the “PBM 8-mer E-score” value falls from -0.00834 to -0.0437.

Compared with ACAGATGT, GCGCGCGA is lower in “PBM 8-mer E-score” value: -0.13 for the first, -0.134 for the second.

First: GGTGCGCA
Second: ACTATGGC
The “PBM 8-mer E-score” value of the first is higher: -0.0657 for the first, -0.0671 for the second.

Compared with AGGTTTGC, TATTCAAA is higher in “PBM 8-mer E-score” value: -0.0448 for the first, 0.206 for the second.

Compared with AGTGTGGA, ATTCGACG is lower in “PBM 8-mer E-score” value: 0.183 for the first, -0.00124 for the second.

Going from ATACCCAC to ACATTCCC, the “PBM 8-mer E-score” value falls from 0.192 to 0.0292.

Compared with GACGAAAC, GTCATCTA is lower in “PBM 8-mer E-score” value: 0.0345 for the first, -0.0584 for the second.

Compared with GACATGCC, AGAAATCT is lower in “PBM 8-mer E-score” value: -0.00308 for the first, -0.0234 for the second.

Going from GGGATTAA to ATAAGGAA, the “PBM 8-mer E-score” value rises from 0.144 to 0.191.

Compared with CAATAGCG, CTATTAAC is higher in “PBM 8-mer E-score” value: 0.0716 for the first, 0.315 for the second.

First: AGCCCTAC
Second: GTGTTGCA
The “PBM 8-mer E-score” value of the first is lower: -0.176 for the first, -0.0604 for the second.

First: ATCAGCCG
Second: ACATCCGC
The “PBM 8-mer E-score” value of the first is lower: -0.246 for the first, -0.0692 for the second.

First: TGGGAGAA
Second: CATCCGAC
The “PBM 8-mer E-score” value of the first is higher: -0.187 for the first, -0.207 for the second.

Compared with ACAGGATG, ACAGGAGA is lower in “PBM 8-mer E-score” value: -0.111 for the first, -0.164 for the second.

Compared with ACTCCCAG, GGCCTCCC is lower in “PBM 8-mer E-score” value: -0.168 for the first, -0.27 for the second.

Compared with ACTCCCAT, AGGGCCAG is lower in “PBM 8-mer E-score” value: -0.0992 for the first, -0.221 for the second.

Compared with TGCTTCCA, ACTGCAGT is higher in “PBM 8-mer E-score” value: -0.296 for the first, 0.0352 for the second.

Compared with AGAATTCA, CTTCTGGA is lower in “PBM 8-mer E-score” value: 0.0754 for the first, -0.0935 for the second.

Compared with ACGAACAT, CGCTGTAA is lower in “PBM 8-mer E-score” value: 0.0702 for the first, -0.0808 for the second.

Compared with ACACATTG, CCGGGACG is lower in “PBM 8-mer E-score” value: 0.113 for the first, -0.26 for the second.

Going from CATCTCCA to ATTGACTG, the “PBM 8-mer E-score” value rises from -0.0657 to -0.0518.

First: TTATACAA
Second: ATTTTCGG
The “PBM 8-mer E-score” value of the first is higher: 0.359 for the first, 0.0781 for the second.

Going from AGCATATG to ATTGGGGC, the “PBM 8-mer E-score” value falls from 0.167 to -0.0672.

First: AAGGCCCG
Second: AAGATAGG
The “PBM 8-mer E-score” value of the first is lower: -0.242 for the first, 0.0118 for the second.

Compared with ACAAATCG, CCTAGGAC is lower in “PBM 8-mer E-score” value: 0.124 for the first, -0.213 for the second.

Going from GAGTCAGC to CCCCTCAC, the “PBM 8-mer E-score” value falls from -0.194 to -0.266.

First: GCGATGCC
Second: GTGAGCAA
The “PBM 8-mer E-score” value of the first is lower: -0.208 for the first, -0.0104 for the second.

Compared with AAGAGCGT, ATTCACAC is higher in “PBM 8-mer E-score” value: -0.0294 for the first, 0.149 for the second.

First: GCTACGCA
Second: GCTTCTGA
The “PBM 8-mer E-score” value of the first is lower: -0.248 for the first, -0.0315 for the second.

First: AGACATGA
Second: GGAACTTA
The “PBM 8-mer E-score” value of the first is lower: 0.0486 for the first, 0.273 for the second.

First: CTCCGTGC
Second: ACAGGGAC
The “PBM 8-mer E-score” value of the first is lower: -0.228 for the first, -0.154 for the second.

Going from ATCAACAG to AGATAGAA, the “PBM 8-mer E-score” value rises from 0.0164 to 0.0575.

Going from AGCTCCAT to GGTATATA, the “PBM 8-mer E-score” value rises from -0.11 to 0.355.

Compared with ACACTATA, CATGAGGC is lower in “PBM 8-mer E-score” value: 0.315 for the first, -0.18 for the second.

First: GTCTATAA
Second: TAAACCCA
The “PBM 8-mer E-score” value of the first is lower: 0.172 for the first, 0.186 for the second.

First: CTTATCGA
Second: CACAGAGC
The “PBM 8-mer E-score” value of the first is higher: 0.108 for the first, -0.243 for the second.

Going from AGATTTTG to GACATAAC, the “PBM 8-mer E-score” value falls from 0.165 to 0.125.

Going from ACTCAAGT to GGGCTACA, the “PBM 8-mer E-score” value falls from -0.00365 to -0.0513.

Going from TGCGGACA to AGTGTAGG, the “PBM 8-mer E-score” value rises from -0.146 to -0.009.

Going from AACAACAT to GCGCTTAC, the “PBM 8-mer E-score” value falls from 0.246 to -0.0786.

Going from CACCCGCA to AACGTGCC, the “PBM 8-mer E-score” value rises from -0.239 to -0.147.

Compared with AGCTTCTG, GGCACTGA is higher in “PBM 8-mer E-score” value: -0.185 for the first, -0.126 for the second.

First: CTAACTTC
Second: AGAACATC
The “PBM 8-mer E-score” value of the first is higher: 0.168 for the first, -0.00585 for the second.

First: AATGTGCG
Second: ACAAAGGC
The “PBM 8-mer E-score” value of the first is higher: 0.0505 for the first, -0.122 for the second.

Compared with ATGAGGGC, GGACCTCA is lower in “PBM 8-mer E-score” value: -0.239 for the first, -0.283 for the second.

Compared with GCTTCAAA, CCGCAAGC is lower in “PBM 8-mer E-score” value: 0.195 for the first, -0.228 for the second.

Compared with GTCGCGAC, AACCTATG is higher in “PBM 8-mer E-score” value: -0.226 for the first, -0.0808 for the second.

Going from CGGTAAGC to AGCTTAAA, the “PBM 8-mer E-score” value rises from -0.0976 to 0.0748.

First: ACTGATTC
Second: GAAATTCA
The “PBM 8-mer E-score” value of the first is lower: -0.0368 for the first, 0.133 for the second.

Going from CACGTGCA to CTTAGCAA, the “PBM 8-mer E-score” value rises from -0.0519 to -0.011.

Going from ACTTAAAG to AATGTTAT, the “PBM 8-mer E-score” value rises from 0.159 to 0.372.

Going from ACCACCCC to CCTTACCA, the “PBM 8-mer E-score” value rises from -0.252 to -0.195.

Compared with CCAGCACC, CACCTCTA is higher in “PBM 8-mer E-score” value: -0.386 for the first, -0.0961 for the second.

First: CTGTTAAC
Second: GGCCAGTA
The “PBM 8-mer E-score” value of the first is higher: 0.141 for the first, -0.192 for the second.

Compared with AGATCCCG, AAGGTTAG is higher in “PBM 8-mer E-score” value: -0.12 for the first, -0.109 for the second.

Compared with CGATCAGC, AGGCTACA is higher in “PBM 8-mer E-score” value: -0.295 for the first, -0.0897 for the second.

Going from ACTCTCAA to CAGGGCCC, the “PBM 8-mer E-score” value falls from -0.114 to -0.248.

Compared with CGTATTTA, AAATTCGC is lower in “PBM 8-mer E-score” value: 0.267 for the first, 0.16 for the second.

Compared with CGCTGCTC, CCTTAATC is higher in “PBM 8-mer E-score” value: -0.214 for the first, 0.00762 for the second.

First: CTTTGGAA
Second: CGGATATA
The “PBM 8-mer E-score” value of the first is lower: 0.117 for the first, 0.3 for the second.

First: CTACAATC
Second: CCGACAGG
The “PBM 8-mer E-score” value of the first is higher: 0.136 for the first, -0.356 for the second.

First: CAATACAG
Second: ATCGCGTG
The “PBM 8-mer E-score” value of the first is higher: 0.0924 for the first, -0.0831 for the second.

Compared with CAACGCCC, TAAACAAA is higher in “PBM 8-mer E-score” value: -0.0923 for the first, 0.329 for the second.

First: CGGCTTGA
Second: TGACCAAA
The “PBM 8-mer E-score” value of the first is lower: -0.132 for the first, 0.0537 for the second.

First: ATTAGGCG
Second: AATAATCT
The “PBM 8-mer E-score” value of the first is lower: 0.0152 for the first, 0.314 for the second.

First: ATGAACGA
Second: GGAACCTA
The “PBM 8-mer E-score” value of the first is higher: -0.0238 for the first, -0.093 for the second.

Going from ACTGAATG to CGCCTACG, the “PBM 8-mer E-score” value falls from 0.0195 to -0.307.

First: TTCAGGAA
Second: CTTGCCAA
The “PBM 8-mer E-score” value of the first is higher: 0.177 for the first, -0.0787 for the second.

Going from AAAGACCA to CACCTCAA, the “PBM 8-mer E-score” value falls from 0.0345 to -0.124.

Compared with ATGACATC, CCCTAGGG is lower in “PBM 8-mer E-score” value: -0.0678 for the first, -0.239 for the second.

First: GAACCTCC
Second: GGTGACGA
The “PBM 8-mer E-score” value of the first is lower: -0.301 for the first, -0.163 for the second.

Compared with CAGCTCCC, AATATCTA is higher in “PBM 8-mer E-score” value: -0.316 for the first, 0.323 for the second.

Going from ATTAAACA to ACTAGGCC, the “PBM 8-mer E-score” value falls from 0.391 to -0.14.

First: TGACAACA
Second: CACGCGAG
The “PBM 8-mer E-score” value of the first is higher: 0.0143 for the first, -0.192 for the second.

Compared with GAGCAGAC, AGTAAAGG is higher in “PBM 8-mer E-score” value: -0.0893 for the first, 0.00928 for the second.

Going from AGAGGTGG to ACTCGCAT, the “PBM 8-mer E-score” value falls from -0.123 to -0.132.

First: CTTGGGGA
Second: CACATGCC
The “PBM 8-mer E-score” value of the first is higher: -0.0808 for the first, -0.119 for the second.

Going from CCGTAAGG to GTTAGATA, the “PBM 8-mer E-score” value rises from -0.177 to 0.226.

First: ATTTAGTC
Second: GCCAACTA
The “PBM 8-mer E-score” value of the first is higher: 0.188 for the first, -0.0948 for the second.

Going from CCATTCGC to TGTCGTAA, the “PBM 8-mer E-score” value rises from -0.129 to 0.174.

Going from CCCGTGTC to CAGAGGAA, the “PBM 8-mer E-score” value falls from -0.192 to -0.272.

Going from CGAAAAGC to GATTCCGC, the “PBM 8-mer E-score” value falls from 0.0356 to -0.208.

Compared with CACGGTCG, TCTAGGCA is lower in “PBM 8-mer E-score” value: -0.0582 for the first, -0.16 for the second.
